The list shows a part of the results.
Key:
Experiment in all cases: glycan array binding signal (z-score within array); higher = stronger binding
Conditions in all cases: glycan notation: IUPAC condensed, linker removed; mutation: D109R
[1] = target: Gal(b1-4)GlcNAc(b1-2)Man(a1-6)[GlcNAc(b1-2)Man(a1-3)]Man(b1-4)GlcNAc(b1-4)GlcNAc
In short: (§1)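 The binding signal is a Z-score computed within each array and averaged over linkers. Arrays of the same protein sequence at different concentrations or buffers were also averaged together. Data originate from 3228 arrays in the Consortium for Functional Glycomics database, kept only where the protein sequence was available.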

[2] = target: Gal(b1-4)GlcNAc(b1-2)Man(a1-6)[Man(a1-3)]Man(b1-4)GlcNAc(b1-4)GlcNAc
In short: as §1

[3] = target: Gal(b1-4)GlcNAc(b1-2)[Gal(b1-4)GlcNAc(b1-4)]Man(a1-3)[Gal(b1-4)GlcNAc(b1-2)Man(a1-6)]Man(b1-4)GlcNAc(b1-4)GlcNAc
In short: as §1

[4] = target: Gal(b1-4)GlcNAc(b1-2)[Gal(b1-4)GlcNAc(b1-4)]Man(a1-3)[Gal(b1-4)GlcNAc(b1-2)[Gal(b1-4)GlcNAc(b1-6)]Man(a1-6)]Man(b1-4)GlcNAc(b1-4)GlcNAc
In short: as §1

[5] = target: Gal(b1-4)GlcNAc(b1-2)[Gal(b1-4)GlcNAc(b1-4)]Man(a1-3)[GlcNAc(b1-4)][Gal(b1-4)GlcNAc(b1-2)Man(a1-6)]Man(b1-4)GlcNAc(b1-4)GlcNAc
In short: as §1

[6] = target: Gal(b1-4)GlcNAc(b1-2)[Gal(b1-4)GlcNAc(b1-4)]Man(a1-3)[GlcNAc(b1-4)][Gal(b1-4)GlcNAc(b1-2)[Gal(b1-4)GlcNAc(b1-6)]Man(a1-6)]Man(b1-4)GlcNAc(b1-4)GlcNAc
In short: as §1

[7] = target: Gal(b1-4)GlcNAc(b1-2)[Gal(b1-4)GlcNAc(b1-6)]Man(a1-6)[Gal(b1-4)GlcNAc(b1-2)Man(a1-3)]Man(b1-4)GlcNAc(b1-4)GlcNAc
In short: as §1

[8] = target: Gal(b1-4)GlcNAc(b1-2)[Gal(b1-4)GlcNAc(b1-6)]Man(a1-6)[Gal(b1-4)GlcNAc(b1-2)Man(a1-3)]Man(b1-4)GlcNAc(b1-4)[Fuc(a1-6)]GlcNAc
In short: as §1

[9] = target: Gal(b1-4)GlcNAc(b1-2)[Gal(b1-4)GlcNAc(b1-6)]Man(a1-6)[GlcNAc(b1-4)][Gal(b1-4)GlcNAc(b1-2)Man(a1-3)]Man(b1-4)GlcNAc(b1-4)GlcNAc
In short: as §1

[10] = target: Gal(b1-4)GlcNAc(b1-2)[Gal(b1-4)GlcNAc(b1-6)]Man(a1-6)[GlcNAc(b1-4)][Gal(b1-4)GlcNAc(b1-2)[Gal(b1-4)GlcNAc(b1-4)]Man(a1-3)]Man(b1-4)GlcNAc(b1-4)[Fuc(a1-6)]GlcNAc
In short: as §1

[11] = target: Gal(b1-4)GlcNAc(b1-3)Gal(b1-3)GalNAc
In short: as §1

[12] = target: Gal(b1-4)GlcNAc(b1-3)Gal(b1-3)GlcNAc
In short: as §1

[13] = target: Gal(b1-4)GlcNAc(b1-3)Gal(b1-4)Glc
In short: as §1

[14] = target: Gal(b1-4)GlcNAc(b1-3)Gal(b1-4)GlcNAc
In short: as §1

[15] = target: Gal(b1-4)GlcNAc(b1-3)Gal(b1-4)GlcNAc(b1-2)Man(a1-3)[Gal(b1-4)GlcNAc(b1-3)Gal(b1-4)GlcNAc(b1-2)Man(a1-6)]Man(b1-4)GlcNAc(b1-4)GlcNAc
In short: as §1

[16] = target: Gal(b1-4)GlcNAc(b1-3)Gal(b1-4)GlcNAc(b1-2)Man(a1-3)[Gal(b1-4)GlcNAc(b1-3)Gal(b1-4)GlcNAc(b1-2)Man(a1-6)]Man(b1-4)GlcNAc(b1-4)[Fuc(a1-6)]GlcNAc
In short: as §1

[17] = target: Gal(b1-4)GlcNAc(b1-3)Gal(b1-4)GlcNAc(b1-2)[Gal(b1-4)GlcNAc(b1-3)Gal(b1-4)GlcNAc(b1-6)]Man(a1-6)[Gal(b1-4)GlcNAc(b1-3)Gal(b1-4)GlcNAc(b1-2)Man(a1-3)]Man(b1-4)GlcNAc(b1-4)GlcNAc
In short: as §1

[18] = target: Gal(b1-4)GlcNAc(b1-3)Gal(b1-4)GlcNAc(b1-2)[Gal(b1-4)GlcNAc(b1-3)Gal(b1-4)GlcNAc(b1-6)]Man(a1-6)[Gal(b1-4)GlcNAc(b1-3)Gal(b1-4)GlcNAc(b1-2)Man(a1-3)]Man(b1-4)GlcNAc(b1-4)[Fuc(a1-6)]GlcNAc
In short: as §1

[19] = target: Gal(b1-4)GlcNAc(b1-3)Gal(b1-4)GlcNAc(b1-3)Gal(b1-4)GlcNAc
In short: as §1

[20] = target: Gal(b1-4)GlcNAc(b1-3)Gal(b1-4)GlcNAc(b1-3)Gal(b1-4)GlcNAc(b1-2)Man(a1-3)[Gal(b1-4)GlcNAc(b1-3)Gal(b1-4)GlcNAc(b1-3)Gal(b1-4)GlcNAc(b1-2)Man(a1-6)]Man(b1-4)GlcNAc(b1-4)GlcNAc
In short: as §1

[21] = target: Gal(b1-4)GlcNAc(b1-3)Gal(b1-4)GlcNAc(b1-3)Gal(b1-4)GlcNAc(b1-2)Man(a1-3)[Gal(b1-4)GlcNAc(b1-3)Gal(b1-4)GlcNAc(b1-3)Gal(b1-4)GlcNAc(b1-2)Man(a1-6)]Man(b1-4)GlcNAc(b1-4)[Fuc(a1-6)]GlcNAc
In short: as §1

[22] = target: Gal(b1-4)GlcNAc(b1-3)Gal(b1-4)GlcNAc(b1-3)Gal(b1-4)GlcNAc(b1-2)[Gal(b1-4)GlcNAc(b1-3)Gal(b1-4)GlcNAc(b1-3)Gal(b1-4)GlcNAc(b1-6)]Man(a1-6)[Gal(b1-4)GlcNAc(b1-3)Gal(b1-4)GlcNAc(b1-3)Gal(b1-4)GlcNAc(b1-2)Man(a1-3)]Man(b1-4)GlcNAc(b1-4)[Fuc(a1-6)]GlcNAc
In short: as §1

B1: MpL2 (Macrolepiota procera) (protein)
chain: MSTQVSSGQTYKITNVKAGTVIDLSGEDNKSIIGYPYHSGKNQQWTFNWTGKAWTLRSASSGSYLGIEGTPADGTRLVAVNDPFEWHIWRDEANENAFRIFVPFTNYNLRLSGYGDTTPGTPVQLWWTWEGLHQTWTIDRP
[1]
  glycan array binding signal (z-score): -0.243
[2]
  glycan array binding signal (z-score): -0.238
[3]
  glycan array binding signal (z-score): 1.8
[4]
  glycan array binding signal (z-score): 2.87
[5]
  glycan array binding signal (z-score): 0.508
[6]
  glycan array binding signal (z-score): 1.73
[7]
  glycan array binding signal (z-score): 1.86
[8]
  glycan array binding signal (z-score): 2.31
[9]
  glycan array binding signal (z-score): 0.336
[10]
  glycan array binding signal (z-score): 1.35
[11]
  glycan array binding signal (z-score): -0.247
[12]
  glycan array binding signal (z-score): -0.195
[13]
  glycan array binding signal (z-score): 0.145
[14]
  glycan array binding signal (z-score): 0.419
[15]
  glycan array binding signal (z-score): 1.19
[16]
  glycan array binding signal (z-score): 2.09
[17]
  glycan array binding signal (z-score): 1.69
[18]
  glycan array binding signal (z-score): 3.95
[19]
  glycan array binding signal (z-score): 0.695
[20]
  glycan array binding signal (z-score): 1.99
[21]
  glycan array binding signal (z-score): 2.82
[22]
  glycan array binding signal (z-score): 3.9
